Measured values published in article PMC8938451.
No constants are given. Whether binding was seen depends on the method and setting. For some assays here: Binding seen in cells or lysates may run through a third protein. Some binding calls cover weakened binding; strength is not graded here. For some assays here: Tags and fused reporters may be left off the sequences shown.

Sequences of proteins named here, by UniProt entry; tags and fusion partners are left off. A change or cut given only in a name is not applied to a line headed by its entry.
UniProt Q9NVJ2: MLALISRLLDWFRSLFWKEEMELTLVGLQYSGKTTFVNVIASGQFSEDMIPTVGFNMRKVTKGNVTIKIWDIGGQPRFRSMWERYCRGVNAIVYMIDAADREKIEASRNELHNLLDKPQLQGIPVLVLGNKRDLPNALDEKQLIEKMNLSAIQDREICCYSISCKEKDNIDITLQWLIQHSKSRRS
UniProt Q96T51: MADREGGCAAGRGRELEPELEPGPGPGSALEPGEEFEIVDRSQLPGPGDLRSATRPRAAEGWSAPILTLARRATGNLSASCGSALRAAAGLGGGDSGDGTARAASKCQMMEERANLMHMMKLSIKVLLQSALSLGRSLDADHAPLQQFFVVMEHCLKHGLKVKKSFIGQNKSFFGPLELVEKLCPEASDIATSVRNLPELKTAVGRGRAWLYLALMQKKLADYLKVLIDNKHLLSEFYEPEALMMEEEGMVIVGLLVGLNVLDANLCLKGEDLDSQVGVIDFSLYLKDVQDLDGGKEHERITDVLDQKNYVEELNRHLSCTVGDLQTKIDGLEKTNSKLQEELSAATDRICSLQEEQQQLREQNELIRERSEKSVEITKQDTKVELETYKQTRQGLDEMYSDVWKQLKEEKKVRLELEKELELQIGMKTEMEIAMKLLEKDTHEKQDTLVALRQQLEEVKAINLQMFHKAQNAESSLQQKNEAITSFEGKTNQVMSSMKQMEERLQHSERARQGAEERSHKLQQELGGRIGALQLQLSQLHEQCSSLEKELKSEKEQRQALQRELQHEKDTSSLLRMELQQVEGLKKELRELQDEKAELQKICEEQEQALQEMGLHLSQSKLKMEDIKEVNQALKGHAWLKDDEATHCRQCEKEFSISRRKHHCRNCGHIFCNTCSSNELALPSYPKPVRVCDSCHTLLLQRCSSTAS
UniProt Q9Y6G9: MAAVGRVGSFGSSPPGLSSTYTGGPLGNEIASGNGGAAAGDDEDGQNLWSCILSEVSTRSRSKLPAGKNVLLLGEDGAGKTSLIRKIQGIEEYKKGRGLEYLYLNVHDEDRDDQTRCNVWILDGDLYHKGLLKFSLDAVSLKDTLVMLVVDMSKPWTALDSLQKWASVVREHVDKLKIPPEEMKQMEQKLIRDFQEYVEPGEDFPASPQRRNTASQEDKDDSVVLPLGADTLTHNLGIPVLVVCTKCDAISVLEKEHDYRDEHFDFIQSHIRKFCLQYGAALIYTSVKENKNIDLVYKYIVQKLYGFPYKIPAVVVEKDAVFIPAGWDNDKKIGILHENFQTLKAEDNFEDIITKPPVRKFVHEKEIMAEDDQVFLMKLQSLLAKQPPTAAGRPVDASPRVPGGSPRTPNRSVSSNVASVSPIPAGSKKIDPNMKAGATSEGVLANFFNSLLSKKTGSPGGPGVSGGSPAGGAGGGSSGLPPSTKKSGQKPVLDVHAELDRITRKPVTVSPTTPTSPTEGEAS
UniProt P51149: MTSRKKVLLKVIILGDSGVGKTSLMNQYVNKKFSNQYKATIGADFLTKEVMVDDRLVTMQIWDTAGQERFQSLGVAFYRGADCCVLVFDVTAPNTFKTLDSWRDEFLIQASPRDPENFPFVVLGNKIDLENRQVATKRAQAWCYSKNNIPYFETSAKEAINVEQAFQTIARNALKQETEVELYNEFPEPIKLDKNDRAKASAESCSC

Key:
GST-ARL8B-Q75L = GST-ARL8B-Q75L (UniProt Q9NVJ2); experiment: pull-down; GST-ARL8B-Q75L (GTPγS) or GST-ARL8B-T34N (GDP) on glutathione-Sepharose incubated 1 h at 4 °C with lysates of transfected HEK293T cells (25 mM Tris-HCl pH 7.4, 150 mM NaCl, 1% NP-40, 8 mM MgCl2, 500 uM nucleotide); immunoblot for FLAG or GFP; only the target purified
GST-ARL8B-T34N = GST-ARL8B-T34N (UniProt Q9NVJ2); experiment: as above
RUFY3.1-FLAG (human) = molecular target: T1, RUFY3.1-FLAG (human) (UniProt Q7L099); experiment: co-IP; lysates of HEK293T cells transfected with FLAG-tagged proteins, anti-FLAG magnetic agarose overnight at 4 °C (25 mM Tris-HCl pH 7.4, 0.15 M NaCl, 1 mM EDTA, 1% NP-40, 5% glycerol); immunoblot for endogenous ARL8A and ARL8B
T1 sequence: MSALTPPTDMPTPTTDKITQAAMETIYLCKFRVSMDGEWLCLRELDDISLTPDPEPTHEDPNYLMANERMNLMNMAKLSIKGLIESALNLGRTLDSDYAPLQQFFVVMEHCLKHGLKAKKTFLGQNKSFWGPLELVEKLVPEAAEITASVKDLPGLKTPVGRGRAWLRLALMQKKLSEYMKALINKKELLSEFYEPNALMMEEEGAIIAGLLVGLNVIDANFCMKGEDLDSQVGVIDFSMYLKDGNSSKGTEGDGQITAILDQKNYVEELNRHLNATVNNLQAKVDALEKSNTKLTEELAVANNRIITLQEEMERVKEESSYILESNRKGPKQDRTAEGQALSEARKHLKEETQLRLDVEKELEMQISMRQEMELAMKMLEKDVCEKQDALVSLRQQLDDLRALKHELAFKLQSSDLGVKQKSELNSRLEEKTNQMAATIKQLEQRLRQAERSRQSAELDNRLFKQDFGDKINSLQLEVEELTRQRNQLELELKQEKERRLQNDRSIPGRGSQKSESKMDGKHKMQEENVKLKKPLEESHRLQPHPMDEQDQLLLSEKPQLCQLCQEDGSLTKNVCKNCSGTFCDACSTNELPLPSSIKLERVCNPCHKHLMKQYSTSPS

RUFY1-FLAG (human) = RUFY1-FLAG (human) (UniProt Q96T51); experiment: as above
RUFY4-FLAG (human) = molecular target: T2, RUFY4-FLAG (human) (UniProt Q6ZNE9); experiment: as above
T2 sequence: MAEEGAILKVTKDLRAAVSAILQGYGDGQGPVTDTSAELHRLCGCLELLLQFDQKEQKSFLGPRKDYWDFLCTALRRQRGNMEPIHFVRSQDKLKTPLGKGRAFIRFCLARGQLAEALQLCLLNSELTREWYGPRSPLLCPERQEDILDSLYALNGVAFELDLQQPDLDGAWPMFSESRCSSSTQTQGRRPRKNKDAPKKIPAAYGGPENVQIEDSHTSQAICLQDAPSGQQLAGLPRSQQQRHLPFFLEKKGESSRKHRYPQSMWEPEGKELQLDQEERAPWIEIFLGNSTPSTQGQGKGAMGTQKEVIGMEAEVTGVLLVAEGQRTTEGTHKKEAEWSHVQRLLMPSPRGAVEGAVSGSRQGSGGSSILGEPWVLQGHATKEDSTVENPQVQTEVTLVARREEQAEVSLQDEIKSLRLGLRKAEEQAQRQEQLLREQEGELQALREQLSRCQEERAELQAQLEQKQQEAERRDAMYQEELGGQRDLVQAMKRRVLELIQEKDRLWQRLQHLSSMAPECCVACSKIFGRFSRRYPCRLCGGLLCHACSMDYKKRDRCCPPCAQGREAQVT

GST-DLIC1 = GST-DLIC1 (UniProt Q9Y6G9); experiment: pull-down; 20 ug purified GST-DLIC1 or GST-DLIC1-CT on glutathione-Sepharose incubated with 5 ug purified 6His-StrepII-sfGFP-RUFY3 for 1 h at 4 °C; immunoblot for GFP and GST; both purified
RAB7A-T22N-BirA*-HA-MAO = RAB7A-T22N-BirA*-HA-MAO (UniProt P51149); experiment: mitochondrial re-localisation assay (confocal microscopy); HeLa cells co-expressing GFP-tagged proteins with a mitochondrially targeted GTPase (MTS-BioID2-ARL8B or RAB7A-BirA*-HA-MAO); interaction inferred from re-localisation of the GFP protein to mitochondria; cells scored by eye

B1: RUFY4-FLAG (protein, UniProt Q6ZNE9-2 1-571)
chain: T2 sequence
GST-ARL8B-Q75L
  binding: binds
GST-ARL8B-T34N
  binding: no binding

B2: ARL8A, endogenous (protein, UniProt Q96BM9 1-186)
chain: MIALFNKLLDWFKALFWKEEMELTLVGLQYSGKTTFVNVIASGQFNEDMIPTVGFNMRKITKGNVTIKLWDIGGQPRFRSMWERYCRGVSAIVYMVDAADQEKIEASKNELHNLLDKPQLQGIPVLVLGNKRDLPGALDEKELIEKMNLSAIQDREICCYSISCKEKDNIDITLQWLIQHSKSRRS
RUFY3.1-FLAG (human)
  binding: binds
RUFY1-FLAG (human)
  binding: no binding
RUFY4-FLAG (human)
  binding: binds

B3: 6His-StrepII-sfGFP-RUFY3 (protein, UniProt Q7L099-3 1-620)
chain: T1 sequence
GST-DLIC1
  binding: binds

B4: RUFY3.1-GFP (protein, UniProt Q7L099-3 1-620)
chain: T1 sequence
RAB7A-T22N-BirA*-HA-MAO
  binding: no binding

B5: RUFY4-GFP (protein, UniProt Q6ZNE9-2 1-571)
chain: T2 sequence
RAB7A-T22N-BirA*-HA-MAO
  binding: no binding
